# Experimental data: the supplement of paper PMC8728848
# The list shows a part of the results.
# B1: Gal 3 (Homo sapiens), P17931 (protein)
# chain: MADNFSLHDALSGSGNPNPQGWPGAWGNQPAGAGGYPGASYPGAYPGQAPPGAYPGQAPPGAYHGAPGAYPGAPAPGVYPGPPSGPGAYPSSGQPSAPGAYPATGPYGAPAGPLIVPYNLPLPGGVVPRMLITILGTVKPNANILDFQRGNDVAFHFNPRFNENNRRVIVCNTKLDNNWGREESQSVFPFESGKPFKIQVLVEPDHFKVAVNDAHLLQYNHRVKKLNEISKLGISGDIDLTSASYTMI
# Experiments:
# Experiment in all cases: glycan array binding signal (z-score within array); higher = stronger binding
# Conditions in all cases: glycan notation: IUPAC condensed, linker removed; mutation: R186S
# [1] = biological target: Gal(b1-3)GalNAc(a1-3)[Fuc(a1-2)]Gal(b1-4)GlcNAc
# Summary of the method: (§1)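 Glycan array binding is given as a within-array Z-score, which can be read as non-binding when negative. The arrays, 3228 of them, came from the Consortium for Functional Glycomics database and were retained only where the protein sequence was available. Z-scores were averaged across arrays of the same protein sequence at different concentrations or buffers and across linkers.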
# [2] = biological target: Gal(b1-3)GalNAc(b1-3)Gal(a1-4)Gal(b1-4)Glc
# Summary of the method: as §1
# [3] = biological target: Gal(b1-3)GalNAc(b1-4)Gal(b1-4)Glc
# Summary of the method: as §1
# [4] = biological target: Gal(b1-3)GalNAc(b1-4)[Neu5Ac(a2-3)]Gal(b1-4)Glc
# Summary of the method: as §1
# Gal(b1-3)GlcNAc = biological target: Gal(b1-3)GlcNAc
# Summary of the method: as §1
# [5] = biological target: Gal(b1-3)GlcNAc(a1-6)Gal(b1-4)GlcNAc
# Summary of the method: as §1
# [6] = biological target: Gal(b1-3)GlcNAc(b1-2)Man(a1-3)[Gal(b1-3)GlcNAc(b1-2)Man(a1-6)]Man(b1-4)GlcNAc(b1-4)GlcNAc
# Summary of the method: as §1
# [7] = biological target: Gal(b1-3)GlcNAc(b1-2)Man(a1-3)[Gal(b1-3)GlcNAc(b1-2)Man(a1-6)]Man(b1-4)GlcNAc(b1-4)[Fuc(a1-6)]GlcNAc
# Summary of the method: as §1
# [8] = biological target: Gal(b1-3)GlcNAc(b1-3)Gal(b1-3)GlcNAc
# Summary of the method: as §1
# [9] = biological target: Gal(b1-3)GlcNAc(b1-3)Gal(b1-4)Glc
# Summary of the method: as §1
# [10] = biological target: Gal(b1-3)GlcNAc(b1-3)Gal(b1-4)GlcNAc
# Summary of the method: as §1
# [11] = biological target: Gal(b1-3)GlcNAc(b1-3)Gal(b1-4)GlcNAc(b1-6)[Gal(b1-3)GlcNAc(b1-3)]Gal(b1-4)Glc
# Summary of the method: as §1
# [12] = biological target: Gal(b1-3)GlcNAc(b1-3)Gal(b1-4)[Fuc(a1-3)]GlcNAc(b1-6)[Gal(b1-3)GlcNAc(b1-3)]Gal(b1-4)Glc
# Summary of the method: as §1
# [13] = biological target: Gal(b1-3)GlcNAc(b1-3)GalNAc
# Summary of the method: as §1
# [14] = biological target: Gal(b1-3)GlcNAc(b1-6)Gal(b1-4)GlcNAc
# Summary of the method: as §1
# [15] = biological target: Gal(b1-3)[Fuc(a1-4)]GlcNAc
# Summary of the method: as §1
# [16] = biological target: Gal(b1-3)[Fuc(a1-4)]GlcNAc(b1-2)Man(a1-3)[Gal(b1-3)[Fuc(a1-4)]GlcNAc(b1-2)Man(a1-6)]Man(b1-4)GlcNAc(b1-4)GlcNAc
# Summary of the method: as §1
# [17] = biological target: Gal(b1-3)[Fuc(a1-4)]GlcNAc(b1-2)Man(a1-3)[Gal(b1-3)[Fuc(a1-4)]GlcNAc(b1-2)Man(a1-6)]Man(b1-4)GlcNAc(b1-4)[Fuc(a1-6)]GlcNAc
# Summary of the method: as §1
# [18] = biological target: Gal(b1-3)[Fuc(a1-4)]GlcNAc(b1-3)Gal(b1-3)[Fuc(a1-4)]GlcNAc
# Summary of the method: as §1
# [19] = biological target: Gal(b1-3)[Fuc(a1-4)]GlcNAc(b1-3)Gal(b1-4)GlcNAc
# Summary of the method: as §1
# [20] = biological target: Gal(b1-3)[Fuc(a1-4)]GlcNAc(b1-3)Gal(b1-4)[Fuc(a1-3)]GlcNAc
# Summary of the method: as §1
# [21] = biological target: Gal(b1-3)[GlcNAc(b1-6)]GalNAc
# Summary of the method: as §1
# [22] = biological target: Gal(b1-3)[Neu5Ac(a2-6)]GalNAc
# Summary of the method: as §1
# [23] = biological target: Gal(b1-3)[Neu5Ac(a2-6)]GlcNAc(b1-6)Gal(b1-4)Glc
# Summary of the method: as §1
# [24] = biological target: Gal(b1-3)[Neu5Ac(b2-6)]GalNAc
# Summary of the method: as §1
# [25] = biological target: Gal(b1-4)GalNAc(a1-3)[Fuc(a1-2)]Gal(b1-4)GlcNAc
# Summary of the method: as §1
# [26] = biological target: Gal(b1-4)GalNAc(b1-3)[Fuc(a1-2)]Gal(b1-4)GlcNAc
# Summary of the method: as §1
# Gal(b1-4)Glc = biological target: Gal(b1-4)Glc
# Summary of the method: as §1
# Gal(b1-4)Glc6S = biological target: Gal(b1-4)Glc6S
# Summary of the method: as §1
# Gal(b1-4)GlcNAc = biological target: Gal(b1-4)GlcNAc
# Summary of the method: as §1
# [27] = biological target: Gal(b1-4)GlcNAc(a1-6)Gal(b1-4)GlcNAc
# Summary of the method: as §1
# [28] = biological target: Gal(b1-4)GlcNAc(b1-2)Man(a1-3)Man(b1-4)GlcNAc(b1-4)GlcNAc
# Summary of the method: as §1
# [29] = biological target: Gal(b1-4)GlcNAc(b1-2)Man(a1-3)[Gal(b1-4)GlcNAc(b1-2)Man(a1-6)]Man(b1-4)GlcNAc(b1-4)GlcNAc
# Summary of the method: as §1
# [30] = biological target: Gal(b1-4)GlcNAc(b1-2)Man(a1-3)[Gal(b1-4)GlcNAc(b1-2)Man(a1-6)]Man(b1-4)GlcNAc(b1-4)[Fuc(a1-6)]GlcNAc
# Summary of the method: as §1
# [31] = biological target: Gal(b1-4)GlcNAc(b1-2)Man(a1-3)[GlcNAc(b1-2)Man(a1-6)]Man(b1-4)GlcNAc(b1-4)GlcNAc
# Summary of the method: as §1
# [32] = biological target: Gal(b1-4)GlcNAc(b1-2)Man(a1-3)[Man(a1-6)]Man(b1-4)GlcNAc(b1-4)GlcNAc
# Summary of the method: as §1
# [33] = biological target: Gal(b1-4)GlcNAc(b1-2)Man(a1-6)Man(b1-4)GlcNAc(b1-4)GlcNAc
# Summary of the method: as §1
binder,measurement,setting,value
B1,glycan array binding signal (z-score),[1],-0.079
same,glycan array binding signal (z-score),[2],-0.068
same,glycan array binding signal (z-score),[3],-0.035
same,glycan array binding signal (z-score),[4],-0.03
same,glycan array binding signal (z-score),Gal(b1-3)GlcNAc,-0.054
same,glycan array binding signal (z-score),[5],-0.07
same,glycan array binding signal (z-score),[6],-0.084
same,glycan array binding signal (z-score),[7],-0.088
same,glycan array binding signal (z-score),[8],-0.026
same,glycan array binding signal (z-score),[9],-0.038
same,glycan array binding signal (z-score),[10],-0.05
same,glycan array binding signal (z-score),[11],-0.043
same,glycan array binding signal (z-score),[12],-0.042
same,glycan array binding signal (z-score),[13],-0.079
same,glycan array binding signal (z-score),[14],-0.089
same,glycan array binding signal (z-score),[15],-0.037
same,glycan array binding signal (z-score),[16],0.028
same,glycan array binding signal (z-score),[17],-0.048
same,glycan array binding signal (z-score),[18],-0.053
same,glycan array binding signal (z-score),[19],-0.03
same,glycan array binding signal (z-score),[20],-0.051
same,glycan array binding signal (z-score),[21],-0.058
same,glycan array binding signal (z-score),[22],-0.068
same,glycan array binding signal (z-score),[23],-0.056
same,glycan array binding signal (z-score),[24],-0.07
same,glycan array binding signal (z-score),[25],-0.059
same,glycan array binding signal (z-score),[26],-0.047
same,glycan array binding signal (z-score),Gal(b1-4)Glc,-0.029
same,glycan array binding signal (z-score),Gal(b1-4)Glc6S,-0.05
same,glycan array binding signal (z-score),Gal(b1-4)GlcNAc,-0.05
same,glycan array binding signal (z-score),[27],-0.047
same,glycan array binding signal (z-score),[28],-0.041
same,glycan array binding signal (z-score),[29],-0.082
same,glycan array binding signal (z-score),[30],-0.086
same,glycan array binding signal (z-score),[31],-0.073
same,glycan array binding signal (z-score),[32],-0.024
same,glycan array binding signal (z-score),[33],-0.056
